# This is one part of the list.
# How the values were obtained:
# Assay in all cases: glycan array binding signal (z-score within array); higher = stronger binding
# Settings in all cases: glycan notation: IUPAC condensed, linker removed
# [1] = biological target: Neu5Ac(a2-6)GlcNAc(b1-4)GlcNAc(b1-4)GlcNAc
# Summary of the method: (§1)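 Arrays were curated from the Consortium for Functional Glycomics database, 3228 in total, and kept only where the protein sequence was available. Binding is expressed as a within-array Z-score. This score was averaged across arrays of the same protein sequence at different concentrations or buffers and across linkers, and negative values can be read as non-binding.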
# Neu5Ac(a2-8)Neu5Ac = biological target: Neu5Ac(a2-8)Neu5Ac
# Summary of the method: as §1
# [2] = biological target: Neu5Ac(a2-8)Neu5Ac(a2-3)Gal(b1-3)GalNAc(b1-4)[Neu5Ac(a2-3)]Gal(b1-4)Glc
# Summary of the method: as §1
# [3] = biological target: Neu5Ac(a2-8)Neu5Ac(a2-3)Gal(b1-3)GalNAc(b1-4)[Neu5Ac(a2-8)Neu5Ac(a2-3)]Gal(b1-4)Glc
# Summary of the method: as §1
# [4] = biological target: Neu5Ac(a2-8)Neu5Ac(a2-3)Gal(b1-4)Glc
# Summary of the method: as §1
# [5] = biological target: Neu5Ac(a2-8)Neu5Ac(a2-3)Gal(b1-4)GlcNAc
# Summary of the method: as §1
# [6] = biological target: Neu5Ac(a2-8)Neu5Ac(a2-3)[Gal(b1-3)GalNAc(b1-4)]Gal(b1-4)Glc
# Summary of the method: as §1
# [7] = biological target: Neu5Ac(a2-8)Neu5Ac(a2-3)[GalNAc(b1-4)]Gal(b1-4)Glc
# Summary of the method: as §1
# [8] = biological target: Neu5Ac(a2-8)Neu5Ac(a2-8)Neu5Ac
# Summary of the method: as §1
# [9] = biological target: Neu5Ac(a2-8)Neu5Ac(a2-8)Neu5Ac(a2-3)Gal(b1-4)Glc
# Summary of the method: as §1
# [10] = biological target: Neu5Ac(a2-8)Neu5Ac(a2-8)Neu5Ac(a2-3)[Gal(b1-3)GalNAc(b1-4)]Gal(b1-4)Glc
# Summary of the method: as §1
# [11] = biological target: Neu5Ac(a2-8)Neu5Ac(a2-8)Neu5Ac(a2-3)[GalNAc(b1-4)]Gal(b1-4)Glc
# Summary of the method: as §1
# [12] = biological target: Neu5Ac(a2-8)Neu5Ac(a2-8)Neu5Ac(a2-8)Neu5Ac(a2-3)[GalNAc(b1-4)]Gal(b1-4)Glc
# Summary of the method: as §1
# [13] = biological target: Neu5Ac(a2-8)Neu5Gc(a2-3)Gal(b1-4)GlcNAc
# Summary of the method: as §1
# [14] = biological target: Neu5Ac(b2-6)Gal(b1-4)GlcNAc
# Summary of the method: as §1
# Neu5Ac(b2-6)GalNAc = biological target: Neu5Ac(b2-6)GalNAc
# Summary of the method: as §1
# [15] = biological target: Neu5Ac9Ac(a2-3)Gal(b1-3)GlcNAc
# Summary of the method: as §1
# [16] = biological target: Neu5Ac9Ac(a2-3)Gal(b1-4)GlcNAc
# Summary of the method: as §1
# [17] = biological target: Neu5Ac9Ac(a2-6)Gal(b1-4)GlcNAc
# Summary of the method: as §1
# [18] = biological target: Neu5Gc(a2-3)Gal(b1-3)GlcNAc
# Summary of the method: as §1
# [19] = biological target: Neu5Gc(a2-3)Gal(b1-3)[Fuc(a1-4)]GlcNAc
# Summary of the method: as §1
# Neu5Gc(a2-3)Gal(b1-4)Glc = biological target: Neu5Gc(a2-3)Gal(b1-4)Glc
# Summary of the method: as §1
# [20] = biological target: Neu5Gc(a2-3)Gal(b1-4)GlcNAc
# Summary of the method: as §1
# [21] = biological target: Neu5Gc(a2-3)Gal(b1-4)GlcNAc(b1-3)Gal(b1-4)GlcNAc(b1-2)Man(a1-3)[Neu5Gc(a2-3)Gal(b1-4)GlcNAc(b1-3)Gal(b1-4)GlcNAc(b1-2)Man(a1-6)]Man(b1-4)GlcNAc(b1-4)GlcNAc
# Summary of the method: as §1
# [22] = biological target: Neu5Gc(a2-3)Gal(b1-4)[Fuc(a1-3)]GlcNAc
# Summary of the method: as §1
# [23] = biological target: Neu5Gc(a2-6)Gal(b1-4)GlcNAc
# Summary of the method: as §1
# Neu5Gc(a2-6)GalNAc = biological target: Neu5Gc(a2-6)GalNAc
# Summary of the method: as §1
# [24] = biological target: Neu5Gc(a2-8)Neu5Ac(a2-3)Gal(b1-4)GlcNAc
# Summary of the method: as §1
# [25] = biological target: Neu5Gc(a2-8)Neu5Gc(a2-3)Gal(b1-4)GlcNAc
# Summary of the method: as §1
# [26] = biological target: Neu5Gc(a2-8)Neu5Gc(a2-3)Gal(b1-4)GlcNAc(b1-3)Gal(b1-4)GlcNAc
# Summary of the method: as §1
# [27] = biological target: Neu5Gc(a2-8)Neu5Gc(a2-6)Gal(b1-4)GlcNAc
# Summary of the method: as §1
# [28] = biological target: Neu5Gc(b2-6)Gal(b1-4)GlcNAc
# Summary of the method: as §1
binder,measurement,setting,value
"Cp ZmpB (Clostridium perfringens), Q0TR08 (protein) MNKRKIAAIILATMITNLSATTIDVLAQELNTKNNSKVEVSHDDESHQARVSKFDLYNSDKLDAYNQEFQVSRSNIKSINNNGGKYNSSTIDKAIDGNLETHWETGKPNDANFTNEVVVTFNEITNIDRIVYSARRDSARGKGFAKEFEIYASLKDEGDDFNLVSSGEYTESTRDLVEIKFNPTDFKRLKFKFKKADQNWASAAEFMFYKEDKLNEKFNGLFTDSSMNKVSEEFNTLEKLNAFENELKDHPIYDLYKEGLNNARAILTETSENPTKATLGQITYNLNDDYNNQYRMPYKNIKAIKNNGRHYAAQNIEKAIDNDVNTYWETGTLNSSSFNNEVEVEFNDLVTLDRIVYGSRQSDLKGFAEEVYIYASRTSKGDTYKLVATGAHEATKGLVEAKFEPTEFKRVKFKFKKSKQNSATLNELMFYKPDEVYSSIPKLFTDGTMSELSEEFNSLEKINAFKEKAKNHPLYNDFNETIELAESLISNPRKEDVLELEMRGDSISEAKKRKVWNFQDWQITGLSARAGDKITVYVDVAEGDPTPTLLYKQSLTQHGGATSFQLKPGKNEITIPEINYESNGIPKDVIQGGDLFFTNYKSDSQKRAPKVRIEGASKYPVFILGKSDENEVMKELEAYVEKIKAEPKTTPNIFAVSSNKSLEFVQATYALDWYKKNNKTPKYTAEQWDQYIADAMGFWGFDNSKDVNSDFNFRIMPMVKNLSGGAFMNAGNGVIGIRPGNQDAILAANKGWGVAHELGHNFDTGGRTIVEVTNNMMPLFFESKYKTKTRITDQNIWENNTYPKVGLDDYSNNELYNKADSTHLAQLAPLWQLYLYDNTFYGKFERQFRERDFGNKNREDIYKSWVVAASDAMELDLTEFFARHGIRVDDKVKEDLAKYPKPDKKIYYLNDLAMNYKGDGFTENAKVSVSTSGSNGNIKLSFSVDDENKDNILGYEIRRDGKYVGFTSNDSFVDTKSNLDEDGVYVVTPYDRKLNTLNPIEVNALQPTLSVNPVITLALGEEFNEEEYIVAKDIKGNSLSESVKVKSSNVNTSKVGEYEVLYSLEDSKGNEYTKTSKVNVVSRKEYMSDLTPKQSSNGWGTVRKDKSISGGVIGLTRDGDFVDYNKGLGLHSNAEYVYDLEGKDYDYFESYVGVDKAMSSRPASSVIFKVLVDGEEKFNSGVMRSTTPQKYVKVDVKNAKELKLIVNDAGDGDSSDHASFGDAKLATLSSKPIIKGENLAYSMDEKVDLMKGITATDIEDGNITSKVQIKSSDFVEGKSGIFTVVYSVTDSDGLTSECSRTIAVTDKETQLSDLNWKSATIGSGSVRKDRAVSGNQIRLLNEDNSVETFAKGIGTHSYSEIVYNSEGYDIFDTWVGIDRHVADKKVSSVKFKVYVDGELKAETDVMRIDTPKKRLVVDVRNSKEIKLVVDVADNGNNWDHADWADAKFRNLAEYDASELNKAIEEAKKLDLNNYTEESSEALKNAISKGEEALLSKDKETINSALEELNKEMNSLVKVDLNAVINIPDKYLLKSIQNQLNKTGDITLGDMYSLTTLTLSGVEDLTGLENAKNLETLNMDYNEVKDLRPLSKLKKLNTLNAQEQFIAAGELKPSNGKVIGDSKVYNREGKNVAKTIRVVDKNGNTILEQDAKDEFTINTKDLSSGLYGVHVLFEDEGFSGVMFYLFNV",glycan array binding signal (z-score),[1],0.044
same,glycan array binding signal (z-score),Neu5Ac(a2-8)Neu5Ac,-0.333
same,glycan array binding signal (z-score),[2],-0.251
same,glycan array binding signal (z-score),[3],0.11
same,glycan array binding signal (z-score),[4],-0.182
same,glycan array binding signal (z-score),[5],-0.423
same,glycan array binding signal (z-score),[6],0.001
same,glycan array binding signal (z-score),[7],-0.396
same,glycan array binding signal (z-score),[8],-0.002
same,glycan array binding signal (z-score),[9],0.463
same,glycan array binding signal (z-score),[10],-0.346
same,glycan array binding signal (z-score),[11],0.629
same,glycan array binding signal (z-score),[12],-0.114
same,glycan array binding signal (z-score),[13],0.118
same,glycan array binding signal (z-score),[14],-0.41
same,glycan array binding signal (z-score),Neu5Ac(b2-6)GalNAc,-0.216
same,glycan array binding signal (z-score),[15],-0.424
same,glycan array binding signal (z-score),[16],1.71
same,glycan array binding signal (z-score),[17],-0.353
same,glycan array binding signal (z-score),[18],-0.326
same,glycan array binding signal (z-score),[19],0.043
same,glycan array binding signal (z-score),Neu5Gc(a2-3)Gal(b1-4)Glc,-0.044
same,glycan array binding signal (z-score),[20],-0.31
same,glycan array binding signal (z-score),[21],-0.288
same,glycan array binding signal (z-score),[22],2.05
same,glycan array binding signal (z-score),[23],-0.374
same,glycan array binding signal (z-score),Neu5Gc(a2-6)GalNAc,-0.123
same,glycan array binding signal (z-score),[24],-0.265
same,glycan array binding signal (z-score),[25],-0.299
same,glycan array binding signal (z-score),[26],-0.067
same,glycan array binding signal (z-score),[27],-0.462
same,glycan array binding signal (z-score),[28],-0.284
